Assay results as given in PMC6919601, “Identification of Plasmodium dipeptidyl aminopeptidase allosteric inhibitors by high throughput screening” (PLoS ONE, 2019).
The campaign covered roughly 110,000 compounds. About 230 (0.21%) showed an effect of 50% or more. The list shows a part of the results.

molecular target: DPAP1 (Plasmodium falciparum, UniProt Q8IIJ9); assay: primary screen, percent inhibition; read by cleavage of a fluorogenic dipeptide substrate; higher = more effect of the substance; design: species or system P. falciparum D10 trophozoite lysates; single well
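Note: 30 min substrate incubation versus DMSO and 10 µM JCP410 controls.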

Sequence of DPAP1 (Q8IIJ9 whole entry, looked up): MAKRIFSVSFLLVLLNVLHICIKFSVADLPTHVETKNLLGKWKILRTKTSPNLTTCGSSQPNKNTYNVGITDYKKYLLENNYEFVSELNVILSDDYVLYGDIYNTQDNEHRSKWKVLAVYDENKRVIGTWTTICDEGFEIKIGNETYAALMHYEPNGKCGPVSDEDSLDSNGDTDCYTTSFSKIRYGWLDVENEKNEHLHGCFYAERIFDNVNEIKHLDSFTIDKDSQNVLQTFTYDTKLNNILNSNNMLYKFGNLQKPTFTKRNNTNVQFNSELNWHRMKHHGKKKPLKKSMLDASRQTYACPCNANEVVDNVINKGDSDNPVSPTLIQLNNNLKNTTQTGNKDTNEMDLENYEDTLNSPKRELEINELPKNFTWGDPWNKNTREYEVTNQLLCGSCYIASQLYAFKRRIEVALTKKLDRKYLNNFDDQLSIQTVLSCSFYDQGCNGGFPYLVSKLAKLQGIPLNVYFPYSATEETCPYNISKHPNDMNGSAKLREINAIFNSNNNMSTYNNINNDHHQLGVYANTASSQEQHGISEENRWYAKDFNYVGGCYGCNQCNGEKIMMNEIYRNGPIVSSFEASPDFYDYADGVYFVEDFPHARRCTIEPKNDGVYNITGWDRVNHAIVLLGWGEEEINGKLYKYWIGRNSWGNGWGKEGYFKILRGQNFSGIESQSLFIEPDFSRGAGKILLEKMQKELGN

| Structure (SMILES) | % Inhibition @ 10 uM |
| --- | --- |
| Cc1cccc(OCCCCN2CCCCC2)c1C | -2.28% |
| COc1ccc(CCN2CNc3c(c(=O)n(C)c(=O)n3C)C2)cc1OC | -1.47% |
| Fc1ccc(CN2CCN(c3ccccc3F)CC2)cc1F | -3.71% |
| CCOc1ccccc1N1C(=O)C2C3c4ccccc4C(CO)(c4ccccc43)C2C1=O (stereo not drawn) | -7.34% |
| CCOC(=O)c1[nH]c(C)c(CCC(=O)O)c1C | -3.06% |
| O=c1[nH]c(=O)n(Cc2ccccc2)c2c1C(C(F)(F)F)(C(F)(F)F)NC(C1CCCCC1)=N2 | -6.78% |
| O=S(=O)(Nc1ccccc1Cl)c1ccccc1Cl | 0.132% |
| COc1cc(C(=O)N2CCN(C(=O)c3ccco3)CC2)cc(OC)c1OC | 3.16% |
| CC1(CO)SC2=NCN(c3ccccc3)CN2C1=O (stereo not drawn) | 14.6% |
| Cc1[nH]nc2c1C(c1cc(CN3CCOCC3)cs1)C(C#N)=C(N)O2 (stereo not drawn) | 0.776% |
| O=S(=O)(c1cccc(S(=O)(=O)N2CCN(c3cnccn3)CC2)c1)N1CCOCC1 | -1.29% |
| O=C(c1ccc2c(c1)ncn2-c1ccc(OCc2ccccc2)cc1)N1CCOCC1 | 9.92% |
| COc1cccc(OCC(=O)O/N=C(\N)c2ccncc2)c1 | 2.03% |
| CC(C)C[C@H](Nc1ccccc1C#N)C(=O)NCC#N | -10.1% |
| Cc1nn(-c2ccc(F)cc2)c(-n2cccc2)c1C(=O)N1CCC(C(N)=O)CC1 | 4.01% |
| CN1CCN(c2ccc3c(ccc4c5ccccc5[nH]c34)n2)CC1 | -4.82% |
| CC(C)CCNC(=O)C1CCN(c2nnc(-n3cccc3)s2)CC1 | 2.76% |
| Cc1ccc(OCC(=O)Nc2ccc(S(=O)(=O)N3CCCCC3)cc2)c(Br)c1 | 1.94% |
| O=C(N/C(=C/c1cccnc1)C(=O)N1CCCCCC1)c1cccc(Br)c1 | 4.07% |
| Cc1cc(Br)ccc1OCC(=O)Nc1ccccc1C(=O)Nc1ccccc1 | -7.28% |
| CCOc1ccc(CCN2C(=O)c3ccc(C(=O)O)cc3C2=O)cc1OCC | 4.19% |
| O=C1OC(/C=C/c2ccccc2)=NC/1=C/c1ccc(F)cc1 | 0.944% |
| Cc1[nH]c(SCC(=O)Nc2ccc(Cl)cn2)nc1Cc1ccc(O)cc1 | 3.47% |
| Cc1cc(C)c2[nH]c3nc(S)nnc3c2c1 | 40.8% |
| O=C1OC(c2ccco2)=N/C1=C\c1ccc(Cl)cc1 | -6.97% |
| CCOc1cc2c(cc1OCC)C(CC(=O)O)N(C(=O)NC13CC4CC(CC(C4)C1)C3)CC2 (stereo not drawn) | 0.677% |

| Structure (SMILES) | % Inhibition @ 10 uM |
| --- | --- |
| COCCNC(=O)CSCc1nc(-c2ccccc2F)oc1C | -1.05% |
| COc1cc(OC)c(C2C3=C(O)CCCC3=Nc3ncnn32)cc1OC (stereo not drawn) | 3.32% |
| Cc1cc2ccccc2n1CCNC(=O)COc1ccc2ccccc2c1 | 0.205% |
| CCN1CCC(N2CCN(Cc3ccccc3)CC2)CC1 | -3.6% |
| Cc1sc(NC(=O)C2CCCCC2C(=O)O)c(C(N)=O)c1C (stereo not drawn) | -5.81% |
| Cc1cc(C)c(NC(=O)Cn2c(C)nc3ccccc32)c(C)c1 | 0.13% |
| O=C(CC12CC3CC(CC(C3)C1)C2)NCc1cccnc1 | -4.04% |
| COc1ccc(CN2CCN(Cc3ccco3)CC2)cc1OC | -4.82% |
| CCC(C)NC(=O)CN1C(=O)CSc2ncccc21 (stereo not drawn) | 1.03% |
| CCCOC(=O)c1c(NC(=O)CCCC(=O)O)sc2c1CCC(C)C2 (stereo not drawn) | -4.77% |
| CCc1c2c(nc3sc(C(=O)Nc4ccc(F)cc4)c(N)c13)CC(C)(C)CC2=O | 8.21% |
| CCOc1cc(/C=C2\SC(N3CCN(C)CC3)=NC2=O)ccc1O | 8.94% |
| CCOC(=O)c1c(N)sc2c1CCC1(CCOC(C)(C)C1)C2 (stereo not drawn) | 0.0538% |
| O=C(CCc1nnc2n(CCc3ccccc3)c(=O)c3ccccc3n12)NCCCN1CCOCC1 | 4.16% |
| COc1ccccc1C1C(C#N)=C(N)Oc2cc(O)c(Cl)cc21 (stereo not drawn) | 3.03% |
| COc1cc2c(cc1OC)C(c1cc3c(cc1[N+](=O)[O-])OCO3)N(C(C)=O)CC2 (stereo not drawn) | -2% |
| Cc1ccc(S(=O)(=O)CCc2ccccc2)cc1 | 1.42% |
| COc1cccc(-c2nc(O)c3c(n2)Oc2ccc(C)cc2C3)c1O | 0.655% |
| NC(=O)c1ccc(NC(=O)COc2ccc(S(=O)(=O)NC3CCCC3)cc2)cc1 | -0.545% |
| Cc1ccc(NC(=O)CSC2=C(C#N)C(c3ccco3)CC(=O)N2)cc1Cl (stereo not drawn) | 0.751% |
| Cc1cccc(N2C(=O)CC(N3CCN(c4ccccn4)CC3)C2=O)c1 (stereo not drawn) | 2.44% |
| CCC(C)NC(=O)c1cc(-c2ccc(Br)cc2)[nH]n1 (stereo not drawn) | 5.12% |
| CCCc1nnc2sc(NC(=O)c3ccc(F)cc3)nn12 | 9.28% |
| O=C(COc1ccccc1)Nc1ccc(NC(=O)COc2ccccc2)cc1 | -0.67% |
| CC1CN(Cc2ccc(Br)o2)CC(C)O1 (stereo not drawn) | 1.87% |
| COc1ccc(C(=O)Nc2ccccc2C(F)(F)F)cc1 | -3.04% |

| Structure (SMILES) | % Inhibition @ 10 uM |
| --- | --- |
| O=C1N=C(Nc2ccc(Br)cc2)S/C1=C1\C(=O)Nc2ccc(F)cc21 | 4.83% |
| O=C(Nc1cc(Cl)ccc1Cl)c1ccc(-c2ccccc2)cc1 | -0.771% |
| Cc1ccc(NC(=O)COc2ccc(Cl)cc2C)cc1 | -0.641% |
| O=C(CCC1CCCC1)Nc1cccc(C(=O)O)c1 | 2.84% |
| CCOc1ccccc1NC(=O)c1ccc(Cl)cc1Cl | 5.07% |
| CO/C(O)=C1\C(C)=NC2=C(C(=O)CCC2)C1c1ccc(C)s1 (stereo not drawn) | -3.44% |
| O=S(=O)(NC1CCCc2ccccc21)c1ccc(-c2ccc(O)nn2)s1 (stereo not drawn) | -1.42% |
| CC12CCC(C(=O)Nc3ccc4c(c3)OCO4)(C(=O)C1=O)C2(C)C (stereo not drawn) | 1.78% |
| Cc1ccccc1CNC(=O)CCCn1nc(C)c2c(C)n(-c3ccccc3)nc2c1=O | -1.03% |
| CCOC(=O)N1CCC2(CC1)OC(=O)C(C)=C2C(=O)NCc1ccc(F)cc1 | -1.31% |
| O=C(O)c1cc(S(=O)(=O)Nc2ccc(Br)cc2)c(Cl)cc1Cl | -1.78% |
| N#Cc1nc(/C=C/c2cccs2)oc1NCCCn1ccnc1 | 0.00706% |
| Cc1ccc(C)c(NC(=O)c2cc(F)c(Cl)nc2Cl)c1 | 0.907% |
| Cn1c(N2CCCCC2)nc2c1c(=O)[nH]c(=O)n2C | 4.7% |
| Cc1ccccc1C(=O)NCCN1CCCC1 | 4.88% |
| COc1ccccc1CNC(=O)c1cc2c(=O)oc3ccccc3c2s1 | 1.5% |
| COc1cccc(/C=C2\N=C(c3cc(Cl)ccc3Cl)OC2=O)c1OC | -6.46% |
| CC1CCN(C(=O)CN2C(=O)c3cccc4cccc(c34)C2=O)CC1 | -1.22% |
| CCCCNC(=O)c1nccnc1C(=O)O | 3.31% |
| CCCOc1ccccc1C1NC(=O)NC(C)=C1C(=O)OCC(F)(F)C(F)(F)F (stereo not drawn) | 1.12% |
| CC(C)n1c(C(O)c2ccccc2)nc2ccccc21 (stereo not drawn) | 1.13% |
| O=C(CSc1nnc(-c2c[nH]c3ccccc23)n1-c1ccc(F)cc1)NC1CCCC1 | -6.91% |
| N#CC(=C\c1[nH]c2ccccc2c1O)/C(N)=N/Cc1ccccc1 | -1.26% |
| Cc1ccccc1CNCc1c(C(=O)O)c(C)n(Cc2c(F)cccc2Cl)c1C | 1.41% |
| Cc1ccc(-c2cc(C(=O)NCCCOC(C)C)c3ccccc3n2)cc1C | 1.16% |
| O=C(NC1CCCCC1NC(=O)c1ccco1)c1ccco1 (stereo not drawn) | 1.59% |

| Structure (SMILES) | % Inhibition @ 10 uM |
| --- | --- |
| CCN1CCN(C(=O)c2cc3c(=O)n(Cc4ccccc4)ccc3nc2C)CC1 | 4.32% |
| COCCNC(=O)/C(=C/c1ccccc1)NC(C)=O | -5.64% |
| COCC(C)NC(=O)COCc1cc(-c2ccc3c(c2)OCO3)on1 (stereo not drawn) | 7.44% |
| CCc1ccc(C2C3=C(O)CC(C)(C)CC3=NC(C)=C2C(=O)Nc2ccccc2OC)cc1 (stereo not drawn) | -2.24% |
| CCOC(=O)c1[nH]c(C)c(C(=O)NCCc2ccc(S(N)(=O)=O)cc2)c1C | -2.84% |
| O=C1NN=C(c2ccccc2)C1CCO (stereo not drawn) | 1.67% |
| COc1ccc(NC(=O)c2cccs2)cc1OC | 5.73% |
| CCOc1ccc(CCNC(=O)CN2C(=O)CSc3ncccc32)cc1 | 2.65% |
| CN(C)CCNC(=O)Nc1cn(C)c(=O)c2ccccc12 | 4.91% |
| Cc1ccc(C(=O)Nc2cccc(/C=C/C(=O)O)c2)o1 | -1.66% |
| CCCSCCCNC(=O)C(C)n1nc(CC)n2c(cc3occc32)c1=O (stereo not drawn) | -2.22% |
| NS(=O)(=O)c1ccc(NC(=O)Nc2ccccc2Cl)cc1 | -3.04% |
| COC(=O)c1cc(O)c(OCc2ccccc2)c(O)c1 | -4.24% |
| CCOC(=O)c1c(C)[nH]c(C)c1S(=O)(=O)N1CCC(Cc2ccccc2)CC1 | -2.34% |
| CC1(C)CC(=O)C2=C(C1)OC(N)=C(C#N)C2c1cccc(O)c1 (stereo not drawn) | -3.62% |
| CCc1ccc(-c2nc3c(=O)n(C)c(=O)nc-3n(CC)n2)cc1 | -6.5% |
| COc1ccc(OC)c(/C=C2/NC(=O)N(Cc3ccc(Cl)cc3)C2=O)c1 | -4.93% |
| O=C(NCc1ccco1)c1ccc(-c2cccc(Cl)c2)o1 | -13% |
| Cc1ccc(C2=NS(=O)(=O)N(C)C(C(=O)N(C)C3CCCCC3)=C2)cc1 | 0.655% |
| COc1cc(/C=C(\C#N)c2nc3ccccc3[nH]2)ccc1OC(C)C | -0.725% |
| O=C(NCCc1ccccc1)C(=O)Nc1cccc(C(F)(F)F)c1 | -2.18% |
| Cc1ccc2c(Cl)c(C(=O)NCc3cccnc3)sc2c1 | 1.03% |
| CCCCn1c(CN(C)Cc2ccccc2)nc2c1c(=O)n(C)c(=O)n2C | -4.14% |
| O=C(O)c1ccc(N2C(=O)c3ccc([N+](=O)[O-])cc3C2=O)cc1 | 0.266% |
